Measurements published in article PMC9911399, “Two distinct binding modes provide the RNA-binding protein RbFox with extraordinary sequence specificity”.
Residue numbers refer to the chain shown, from its start. The list shows a part of the results.

B1: CGAGGCC (DNA:RNA)
RNA: GGGAGACCGGAAUUCAGAUUGUCCCGAGGCCUUAAAUCCCGUCGUAGCCACCA
DNA 1: CAATCTGAATTCCGGTCTCCC
DNA 2: TGGTGGCTACGACGGGATT
B2: AGAUUCU (DNA:RNA)
RNA: B1 RNA with C25A, G28U, G29U, C31U
DNA 1: CAATCTGAATTCCGGTCTCCC
DNA 2: TGGTGGCTACGACGGGATT
B3: GGCCCUU (DNA:RNA)
RNA: B1 RNA with C25G, A27C, G28C, G29C, C30U, C31U
DNA 1: CAATCTGAATTCCGGTCTCCC
DNA 2: TGGTGGCTACGACGGGATT
B4: ACUCGGA (DNA:RNA)
RNA: B1 RNA with C25A, G26C, A27U, G28C, C30G, C31A
DNA 1: CAATCTGAATTCCGGTCTCCC
DNA 2: TGGTGGCTACGACGGGATT
B5: ACUGAUC (DNA:RNA)
RNA: B1 RNA with C25A, G26C, A27U, G29A, C30U
DNA 1: CAATCTGAATTCCGGTCTCCC
DNA 2: TGGTGGCTACGACGGGATT
B6: CAGCGGA (DNA:RNA)
RNA: B1 RNA with G26A, A27G, G28C, C30G, C31A
DNA 1: CAATCTGAATTCCGGTCTCCC
DNA 2: TGGTGGCTACGACGGGATT
B7: UUAUAGU (DNA:RNA)
RNA: B1 RNA with C25U, G26U, G28U, G29A, C30G, C31U
DNA 1: CAATCTGAATTCCGGTCTCCC
DNA 2: TGGTGGCTACGACGGGATT
B8: UCCCACU (DNA:RNA)
RNA: B1 RNA with C25U, G26C, A27C, G28C, G29A, C31U
DNA 1: CAATCTGAATTCCGGTCTCCC
DNA 2: TGGTGGCTACGACGGGATT
B9: CGGGACU (DNA:RNA)
RNA: B1 RNA with A27G, G29A, C31U
DNA 1: CAATCTGAATTCCGGTCTCCC
DNA 2: TGGTGGCTACGACGGGATT
B10: CAACGCU (DNA:RNA)
RNA: B1 RNA with G26A, G28C, C31U
DNA 1: CAATCTGAATTCCGGTCTCCC
DNA 2: TGGTGGCTACGACGGGATT
B11: GGGCCAA (DNA:RNA)
RNA: B1 RNA with C25G, A27G, G28C, G29C, C30A, C31A
DNA 1: CAATCTGAATTCCGGTCTCCC
DNA 2: TGGTGGCTACGACGGGATT
B12: ACCAAAC (DNA:RNA)
RNA: B1 RNA with C25A, G26C, A27C, G28A, G29A, C30A
DNA 1: CAATCTGAATTCCGGTCTCCC
DNA 2: TGGTGGCTACGACGGGATT
B13: CUGCCAG (DNA:RNA)
RNA: B1 RNA with G26U, A27G, G28C, G29C, C30A, C31G
DNA 1: CAATCTGAATTCCGGTCTCCC
DNA 2: TGGTGGCTACGACGGGATT
B14: CGCCCUU (DNA:RNA)
RNA: B1 RNA with A27C, G28C, G29C, C30U, C31U
DNA 1: CAATCTGAATTCCGGTCTCCC
DNA 2: TGGTGGCTACGACGGGATT
B15: GCGGCCU (DNA:RNA)
RNA: B1 RNA with C25G, G26C, A27G, G29C, C31U
DNA 1: CAATCTGAATTCCGGTCTCCC
DNA 2: TGGTGGCTACGACGGGATT
B16: CAUCAUU (DNA:RNA)
RNA: B1 RNA with G26A, A27U, G28C, G29A, C30U, C31U
DNA 1: CAATCTGAATTCCGGTCTCCC
DNA 2: TGGTGGCTACGACGGGATT
B17: CAACAAU (DNA:RNA)
RNA: B1 RNA with G26A, G28C, G29A, C30A, C31U
DNA 1: CAATCTGAATTCCGGTCTCCC
DNA 2: TGGTGGCTACGACGGGATT
B18: CACUACA (DNA:RNA)
RNA: B1 RNA with G26A, A27C, G28U, G29A, C31A
DNA 1: CAATCTGAATTCCGGTCTCCC
DNA 2: TGGTGGCTACGACGGGATT
B19: GAUGGCU (DNA:RNA)
RNA: B1 RNA with C25G, G26A, A27U, C31U
DNA 1: CAATCTGAATTCCGGTCTCCC
DNA 2: TGGTGGCTACGACGGGATT
B20: CUUCGGU (DNA:RNA)
RNA: B1 RNA with G26U, A27U, G28C, C30G, C31U
DNA 1: CAATCTGAATTCCGGTCTCCC
DNA 2: TGGTGGCTACGACGGGATT
B21: UCUAGAG (DNA:RNA)
RNA: B1 RNA with C25U, G26C, A27U, G28A, C30A, C31G
DNA 1: CAATCTGAATTCCGGTCTCCC
DNA 2: TGGTGGCTACGACGGGATT
B22: GGGUCUC (DNA:RNA)
RNA: B1 RNA with C25G, A27G, G28U, G29C, C30U
DNA 1: CAATCTGAATTCCGGTCTCCC
DNA 2: TGGTGGCTACGACGGGATT
B23: UUAUCUC (DNA:RNA)
RNA: B1 RNA with C25U, G26U, G28U, G29C, C30U
DNA 1: CAATCTGAATTCCGGTCTCCC
DNA 2: TGGTGGCTACGACGGGATT
B24: CUAACGA (DNA:RNA)
RNA: B1 RNA with G26U, G28A, G29C, C30G, C31A
DNA 1: CAATCTGAATTCCGGTCTCCC
DNA 2: TGGTGGCTACGACGGGATT
B25: UGGUGCA (DNA:RNA)
RNA: B1 RNA with C25U, A27G, G28U, C31A
DNA 1: CAATCTGAATTCCGGTCTCCC
DNA 2: TGGTGGCTACGACGGGATT
B26: UACAUAG (DNA:RNA)
RNA: GGGAGACCGGAAUUCAGAUUGUCCUACAUAGUUAAAUCCCGUCGUAGCCACCA
DNA 1: CAATCTGAATTCCGGTCTCCC
DNA 2: TGGTGGCTACGACGGGATT
B27: ACCAUAA (DNA:RNA)
RNA: B26 RNA with U25A, A26C, G31A
DNA 1: CAATCTGAATTCCGGTCTCCC
DNA 2: TGGTGGCTACGACGGGATT
B28: AACCAUG (DNA:RNA)
RNA: B26 RNA with U25A, A28C, U29A, A30U
DNA 1: CAATCTGAATTCCGGTCTCCC
DNA 2: TGGTGGCTACGACGGGATT
B29: GUGUAAG (DNA:RNA)
RNA: B26 RNA with U25G, A26U, C27G, A28U, U29A
DNA 1: CAATCTGAATTCCGGTCTCCC
DNA 2: TGGTGGCTACGACGGGATT
B30: GUCCUCA (DNA:RNA)
RNA: B26 RNA with U25G, A26U, A28C, A30C, G31A
DNA 1: CAATCTGAATTCCGGTCTCCC
DNA 2: TGGTGGCTACGACGGGATT
B31: AGAUCUG (DNA:RNA)
RNA: B1 RNA with C25A, G28U, G29C, C30U, C31G
DNA 1: CAATCTGAATTCCGGTCTCCC
DNA 2: TGGTGGCTACGACGGGATT

target: T1, RBFOX1 RRM RbFoxmut (Fox-RRM*) (Homo sapiens, UniProt Q9NWB1 109-208, R118D;E147R;N151S;E152T); test: EMSA; HiTS-Eq, 1 nM pool, 10 min; buffer printed only for the single-RNA assays: 10 mM Tris pH 7.5, 150 mM NaCl, 3.4 mM EDTA, 0.001% NP-40, 30 C; conditions: tags: His6 N-terminal (pET28a); label: 5' 32P
T1 sequence: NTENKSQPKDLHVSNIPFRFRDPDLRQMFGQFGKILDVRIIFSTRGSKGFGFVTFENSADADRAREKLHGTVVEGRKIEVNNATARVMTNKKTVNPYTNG
Outline: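 Purified RbFox RRM (wild type or mutant) was equilibrated for 10 min in 50 µL with 1 nM of a 5′-radiolabelled pool of RNA with 7 randomized nucleotides, its flanks annealed to DNA oligonucleotides, across increasing protein concentrations. Free RNA was separated by 8% native PAGE, excised, reverse-transcribed, PCR-barcoded and sequenced on an Illumina HiSeq 2500. Relative association constants came from read-count changes of each variant against the control reaction, normalised to the cognate motif.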

In order of rising binding signal:
1. B24  0.0341 KA relative to UGCAUGU
2. B17  0.0426 KA relative to UGCAUGU
3. B12  0.0457 KA relative to UGCAUGU
4. B26  0.0522 KA relative to UGCAUGU
5. B3  0.0552 KA relative to UGCAUGU
6. B5  0.0619 KA relative to UGCAUGU
7. B8  0.065 KA relative to UGCAUGU
8. B11  0.0698 KA relative to UGCAUGU
9. B31  0.0701 KA relative to UGCAUGU
10. B14  0.0724 KA relative to UGCAUGU
11. B6  0.0726 KA relative to UGCAUGU
12. B23  0.0808 KA relative to UGCAUGU
13. B13  0.0817 KA relative to UGCAUGU
14. B2  0.0883 KA relative to UGCAUGU
15. B9  0.0898 KA relative to UGCAUGU
16. B16  0.0898 KA relative to UGCAUGU
17. B27  0.0904 KA relative to UGCAUGU
18. B20  0.095 KA relative to UGCAUGU
19. B15  0.0959 KA relative to UGCAUGU
20. B4  0.0986 KA relative to UGCAUGU
21. B19  0.0996 KA relative to UGCAUGU
22. B7  0.102 KA relative to UGCAUGU
23. B22  0.105 KA relative to UGCAUGU
24. B28  0.105 KA relative to UGCAUGU
25. B30  0.114 KA relative to UGCAUGU
26. B21  0.116 KA relative to UGCAUGU
27. B10  0.117 KA relative to UGCAUGU
28. B29  0.124 KA relative to UGCAUGU
29. B18  0.13 KA relative to UGCAUGU
30. B1  0.179 KA relative to UGCAUGU
31. B25  0.226 KA relative to UGCAUGU
